# Test results as given in the supplement of paper PMC8728848.
# The other results are listed elsewhere or left out.
# Key:
# Assay in all cases: glycan array binding signal (z-score within array); higher = stronger binding
# Conditions in all cases: glycan notation: IUPAC condensed, linker removed
# [1] = molecular target: Gal(b1-3)[Neu5Ac(a2-6)]GlcNAc(a1-4)Gal(b1-4)Glc
# How it was run: (§1)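 Columns mapping to the same glycan were averaged after glycan names were converted to IUPAC-condensed notation. The data come from 3228 arrays in the Consortium for Functional Glycomics database, limited to those with an available protein sequence. Binding is reported as a within-array Z-score averaged across arrays of one protein sequence and across linkers.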
# [2] = molecular target: Gal(b1-3)[Neu5Ac(a2-6)]GlcNAc(b1-4)Gal(b1-4)Glc
# How it was run: as §1
# [3] = molecular target: Gal(b1-3)[Neu5Ac(a2-6)]GlcNAc(b1-6)Gal(b1-4)Glc
# How it was run: as §1
# [4] = molecular target: Gal(b1-3)[Neu5Ac(b2-6)]GalNAc
# How it was run: as §1
# [5] = molecular target: Gal(b1-3)[Neu5Ac(b2-6)]GlcNAc
# How it was run: as §1
# [6] = molecular target: Gal(b1-4)Gal
# How it was run: as §1
# [7] = molecular target: Gal(b1-4)GalNAc(a1-3)[Fuc(a1-2)]Gal(b1-4)GlcNAc
# How it was run: as §1
# [8] = molecular target: Gal(b1-4)GalNAc(b1-3)[Fuc(a1-2)]Gal(b1-4)GlcNAc
# How it was run: as §1
# [9] = molecular target: Gal(b1-4)Glc
# How it was run: as §1
# [10] = molecular target: Gal(b1-4)Glc6S
# How it was run: as §1
# [11] = molecular target: Gal(b1-4)GlcNAc
# How it was run: as §1
# [12] = molecular target: Gal(b1-4)GlcNAc(a1-6)Gal(b1-4)GlcNAc
# How it was run: as §1
# [13] = molecular target: Gal(b1-4)GlcNAc(b1-2)Man
# How it was run: as §1
# [14] = molecular target: Gal(b1-4)GlcNAc(b1-2)Man(a1-3)Man(b1-4)GlcNAc(b1-4)GlcNAc
# How it was run: as §1
# [15] = molecular target: Gal(b1-4)GlcNAc(b1-2)Man(a1-3)[Gal(b1-4)GlcNAc(b1-2)Man(a1-6)]Man(b1-4)GlcNAc(b1-4)GlcNAc
# How it was run: as §1
# [16] = molecular target: Gal(b1-4)GlcNAc(b1-2)Man(a1-3)[Gal(b1-4)GlcNAc(b1-2)Man(a1-6)]Man(b1-4)GlcNAc(b1-4)[Fuc(a1-6)]GlcNAc
# How it was run: as §1
# [17] = molecular target: Gal(b1-4)GlcNAc(b1-2)Man(a1-3)[Gal(b1-4)GlcNAc(b1-2)Man(a1-6)][Gal(b1-4)GlcNAc(b1-4)]Man(b1-4)GlcNAc(b1-4)[Fuc(a1-6)]GlcNAc
# How it was run: as §1
# [18] = molecular target: Gal(b1-4)GlcNAc(b1-2)Man(a1-3)[Gal(b1-4)GlcNAc(b1-2)Man(a1-6)][GlcNAc(b1-4)]Man(b1-4)GlcNAc(b1-4)[Fuc(a1-6)]GlcNAc
# How it was run: as §1
# [19] = molecular target: Gal(b1-4)GlcNAc(b1-2)Man(a1-3)[GlcNAc(b1-2)Man(a1-6)]Man(b1-4)GlcNAc(b1-4)GlcNAc
# How it was run: as §1
# [20] = molecular target: Gal(b1-4)GlcNAc(b1-2)Man(a1-3)[GlcNAc(b1-4)][Gal(b1-4)GlcNAc(b1-2)Man(a1-6)]Man(b1-4)GlcNAc(b1-4)GlcNAc
# How it was run: as §1
# [21] = molecular target: Gal(b1-4)GlcNAc(b1-2)Man(a1-3)[Man(a1-6)]Man(b1-4)GlcNAc(b1-4)GlcNAc
# How it was run: as §1
# [22] = molecular target: Gal(b1-4)GlcNAc(b1-2)Man(a1-6)Man(b1-4)GlcNAc(b1-4)GlcNAc
# How it was run: as §1
# [23] = molecular target: Gal(b1-4)GlcNAc(b1-2)Man(a1-6)[GlcNAc(b1-2)Man(a1-3)]Man(b1-4)GlcNAc(b1-4)GlcNAc
# How it was run: as §1
# [24] = molecular target: Gal(b1-4)GlcNAc(b1-2)Man(a1-6)[Man(a1-3)]Man(b1-4)GlcNAc(b1-4)GlcNAc
# How it was run: as §1
# [25] = molecular target: Gal(b1-4)GlcNAc(b1-2)[Gal(b1-4)GlcNAc(b1-4)]Man(a1-3)[Gal(b1-4)GlcNAc(b1-2)Man(a1-6)]Man(b1-4)GlcNAc(b1-4)GlcNAc
# How it was run: as §1
# [26] = molecular target: Gal(b1-4)GlcNAc(b1-2)[Gal(b1-4)GlcNAc(b1-4)]Man(a1-3)[Gal(b1-4)GlcNAc(b1-2)[Gal(b1-4)GlcNAc(b1-6)]Man(a1-6)]Man(b1-4)GlcNAc(b1-4)GlcNAc
# How it was run: as §1
# [27] = molecular target: Gal(b1-4)GlcNAc(b1-2)[Gal(b1-4)GlcNAc(b1-4)]Man(a1-3)[GlcNAc(b1-4)][Gal(b1-4)GlcNAc(b1-2)Man(a1-6)]Man(b1-4)GlcNAc(b1-4)GlcNAc
# How it was run: as §1
# [28] = molecular target: Gal(b1-4)GlcNAc(b1-2)[Gal(b1-4)GlcNAc(b1-4)]Man(a1-3)[GlcNAc(b1-4)][Gal(b1-4)GlcNAc(b1-2)[Gal(b1-4)GlcNAc(b1-6)]Man(a1-6)]Man(b1-4)GlcNAc(b1-4)GlcNAc
# How it was run: as §1
# [29] = molecular target: Gal(b1-4)GlcNAc(b1-2)[Gal(b1-4)GlcNAc(b1-6)]Man(a1-6)[Gal(b1-4)GlcNAc(b1-2)Man(a1-3)]Man(b1-4)GlcNAc(b1-4)GlcNAc
# How it was run: as §1
# [30] = molecular target: Gal(b1-4)GlcNAc(b1-2)[Gal(b1-4)GlcNAc(b1-6)]Man(a1-6)[Gal(b1-4)GlcNAc(b1-2)Man(a1-3)]Man(b1-4)GlcNAc(b1-4)[Fuc(a1-6)]GlcNAc
# How it was run: as §1
# [31] = molecular target: Gal(b1-4)GlcNAc(b1-2)[Gal(b1-4)GlcNAc(b1-6)]Man(a1-6)[GlcNAc(b1-4)][Gal(b1-4)GlcNAc(b1-2)Man(a1-3)]Man(b1-4)GlcNAc(b1-4)GlcNAc
# How it was run: as §1
# [32] = molecular target: Gal(b1-4)GlcNAc(b1-2)[Gal(b1-4)GlcNAc(b1-6)]Man(a1-6)[GlcNAc(b1-4)][Gal(b1-4)GlcNAc(b1-2)[Gal(b1-4)GlcNAc(b1-4)]Man(a1-3)]Man(b1-4)GlcNAc(b1-4)[Fuc(a1-6)]GlcNAc
# How it was run: as §1
# [33] = molecular target: Gal(b1-4)GlcNAc(b1-3)Gal(b1-3)GalNAc
# How it was run: as §1
# [34] = molecular target: Gal(b1-4)GlcNAc(b1-3)Gal(b1-3)GlcNAc
# How it was run: as §1
# [35] = molecular target: Gal(b1-4)GlcNAc(b1-3)Gal(b1-4)Glc
# How it was run: as §1
# [36] = molecular target: Gal(b1-4)GlcNAc(b1-3)Gal(b1-4)GlcNAc
# How it was run: as §1
# [37] = molecular target: Gal(b1-4)GlcNAc(b1-3)Gal(b1-4)GlcNAc(b1-2)Man(a1-3)[Gal(b1-4)GlcNAc(b1-3)Gal(b1-4)GlcNAc(b1-2)Man(a1-6)]Man(b1-4)GlcNAc(b1-4)GlcNAc
# How it was run: as §1
binder,measurement,setting,value
"LTL (Lotus tetragonolobus), P19664 (protein) VSFNYTEFKDDGSLILQGDAKIWTDGRLAMPTDPLVNNPKTTRSAGRALYATPVPIWDSATGNVASFVTSFNFLFVIRELKYTPTDGLVFFLAPVGTEIPSGSTGGFLGIFDGSNGFNQFVAVEFDSYHNIWDPKSLRSSHVGIDVNSIMSLKAVNWNRVSGSLEKATIIYDSQTNILSVVMTSQNGQITTIYGTIDLKTVLPEKVSVGFSATTGNPEREKHDIYSWSFTSTLKEPEEQA",glycan array binding signal (z-score),[1],-0.403
same,glycan array binding signal (z-score),[2],-0.257
same,glycan array binding signal (z-score),[3],-0.332
same,glycan array binding signal (z-score),[4],-0.336
same,glycan array binding signal (z-score),[5],-0.518
same,glycan array binding signal (z-score),[6],-0.131
same,glycan array binding signal (z-score),[7],-0.342
same,glycan array binding signal (z-score),[8],-0.444
same,glycan array binding signal (z-score),[9],-0.28
same,glycan array binding signal (z-score),[10],-0.191
same,glycan array binding signal (z-score),[11],-0.171
same,glycan array binding signal (z-score),[12],-0.286
same,glycan array binding signal (z-score),[13],-0.192
same,glycan array binding signal (z-score),[14],-0.363
same,glycan array binding signal (z-score),[15],-0.302
same,glycan array binding signal (z-score),[16],-0.208
same,glycan array binding signal (z-score),[17],-0.351
same,glycan array binding signal (z-score),[18],-0.287
same,glycan array binding signal (z-score),[19],-0.193
same,glycan array binding signal (z-score),[20],-0.109
same,glycan array binding signal (z-score),[21],-0.15
same,glycan array binding signal (z-score),[22],-0.209
same,glycan array binding signal (z-score),[23],-0.356
same,glycan array binding signal (z-score),[24],-0.242
same,glycan array binding signal (z-score),[25],-0.005
same,glycan array binding signal (z-score),[26],-0.342
same,glycan array binding signal (z-score),[27],-0.278
same,glycan array binding signal (z-score),[28],-0.184
same,glycan array binding signal (z-score),[29],-0.372
same,glycan array binding signal (z-score),[30],-0.3
same,glycan array binding signal (z-score),[31],-0.318
same,glycan array binding signal (z-score),[32],-0.359
same,glycan array binding signal (z-score),[33],0.215
same,glycan array binding signal (z-score),[34],-0.02
same,glycan array binding signal (z-score),[35],-0.016
same,glycan array binding signal (z-score),[36],-0.31
same,glycan array binding signal (z-score),[37],1.51
